From US11178870B2 (priority 2017, dated 2021)

Experiments:
Magnaporthe grisea = format: in vivo; settings: for Test A control value: Blast on rice; for control value, Test A (blast on rice): Table 7, Test A
Phytophthora infestans = format: in vivo; settings: for Test F control value: Late blight on tomato; for control value, Test F (late blight on tomato): Table 7, Test F
[1] = tested on: Colletotrichum orbiculare; settings: 250 ppm sprayed (2.5 ml/pot) before inoculation; assessed 6 to 10 days after inoculation

CCn1c(-c2ccccc2Cl)c(-n2cc(Cl)cn2)cc(Cl)c1=O [Compound 172]
Test A control value (Magnaporthe grisea): H (H shows the control value more than 50%) | Test F control value (Phytophthora infestans): L (L shows the control value of 50% or less)

CCn1c(-c2ccccc2Cl)c(-n2cc(Cl)cn2)cc(Br)c1=O [Compound 173]
Test A control value (Magnaporthe grisea): H (H shows the control value more than 50%) | Test F control value (Phytophthora infestans): L (L shows the control value of 50% or less)

Cn1c(-c2c(F)cc(F)cc2F)c(-n2cc(Cl)cn2)ccc1=O [Compound 174]
Test A control value (Magnaporthe grisea): H (H shows the control value more than 50%) | Test F control value (Phytophthora infestans): H (H shows the control value more than 50%)

Cn1c(-c2c(F)cc(F)cc2F)c(-n2cc(Cl)cn2)cc(Cl)c1=O [Compound 175]
Test A control value (Magnaporthe grisea): H (H shows the control value more than 50%) | Test F control value (Phytophthora infestans): H (H shows the control value more than 50%)

Cn1c(-c2c(F)cc(F)cc2F)c(-n2cc(Cl)cn2)cc(Br)c1=O [Compound 176]
Test A control value (Magnaporthe grisea): H (H shows the control value more than 50%) | Test F control value (Phytophthora infestans): L (L shows the control value of 50% or less)

COc1cc(F)c(-c2c(-n3cc(Cl)cn3)cc(Cl)c(=O)n2C)c(F)c1 [Compound 177]
Test A control value (Magnaporthe grisea): H (H shows the control value more than 50%) | Test F control value (Phytophthora infestans): L (L shows the control value of 50% or less)

COc1cc(F)c(-c2c(-n3cc(Cl)cn3)cc(Br)c(=O)n2C)c(F)c1 [Compound 178]
Test A control value (Magnaporthe grisea): H (H shows the control value more than 50%) | Test F control value (Phytophthora infestans): L (L shows the control value of 50% or less)

CCn1c(-c2ccccc2Cl)c(-n2ncc(C)c2Cl)cc(Cl)c1=O [Compound 179]
Test A control value (Magnaporthe grisea): H (H shows the control value more than 50%) | Test F control value (Phytophthora infestans): L (L shows the control value of 50% or less)

CCn1c(-c2ccccc2Cl)c(-n2cc(C)cn2)cc(Br)c1=O [Compound 180]
Test A control value (Magnaporthe grisea): H (H shows the control value more than 50%) | Test F control value (Phytophthora infestans): L (L shows the control value of 50% or less)

CCn1c(-c2ccccc2Cl)c(-n2ncc(C)c2Cl)cc(Br)c1=O [Compound 181]
Test A control value (Magnaporthe grisea): H (H shows the control value more than 50%) | Test F control value (Phytophthora infestans): H (H shows the control value more than 50%)

CCn1c(-c2ccc(F)cc2F)c(-n2ncc(C)c2Cl)cc(Cl)c1=O [Compound 182]
Test A control value (Magnaporthe grisea): H (H shows the control value more than 50%) | Test F control value (Phytophthora infestans): H (H shows the control value more than 50%)

CCn1c(-c2ccccc2Br)c(-n2cc(Cl)cn2)ccc1=O [Compound 183]
Test A control value (Magnaporthe grisea): L (L shows the control value of 50% or less) | Test F control value (Phytophthora infestans): L (L shows the control value of 50% or less)

CCn1c(-c2c(F)cc(F)cc2F)c(-n2cc(Cl)cn2)ccc1=S [Compound 185]
control value, Test A (blast on rice) (Magnaporthe grisea): L (L shows the control value of 50% or less) | control value, Test H (anthracnose on cucumber) [1]: L (L shows the control value of 50% or less) | control value, Test F (late blight on tomato) (Phytophthora infestans): L (L shows the control value of 50% or less)

Cc1cnn(-c2ccc(=O)n(CC(F)F)c2-c2c(F)cccc2F)c1 [Compound 186]
control value, Test A (blast on rice) (Magnaporthe grisea): H (H shows the control value more than 50%) | control value, Test H (anthracnose on cucumber) [1]: H (H shows the control value more than 50%) | control value, Test F (late blight on tomato) (Phytophthora infestans): L (L shows the control value of 50% or less)

Cc1cnn(-c2cc(Cl)c(=O)n(C)c2-c2c(F)cccc2F)c1Cl [Compound 187]
control value, Test A (blast on rice) (Magnaporthe grisea): H (H shows the control value more than 50%) | control value, Test H (anthracnose on cucumber) [1]: H (H shows the control value more than 50%) | control value, Test F (late blight on tomato) (Phytophthora infestans): L (L shows the control value of 50% or less)

Cc1cnn(-c2cc(Br)c(=O)n(C)c2-c2c(F)cccc2F)c1 [Compound 188]
control value, Test A (blast on rice) (Magnaporthe grisea): H (H shows the control value more than 50%) | control value, Test H (anthracnose on cucumber) [1]: H (H shows the control value more than 50%) | control value, Test F (late blight on tomato) (Phytophthora infestans): L (L shows the control value of 50% or less)

Cc1cnn(-c2cc(Br)c(=O)n(C)c2-c2c(F)cccc2F)c1Cl [Compound 189]
control value, Test A (blast on rice) (Magnaporthe grisea): H (H shows the control value more than 50%) | control value, Test H (anthracnose on cucumber) [1]: H (H shows the control value more than 50%) | control value, Test F (late blight on tomato) (Phytophthora infestans): L (L shows the control value of 50% or less)

Cc1cnn(-c2cc(Cl)c(=O)n(CC(F)F)c2-c2c(F)cccc2F)c1Cl [Compound 190]
control value, Test A (blast on rice) (Magnaporthe grisea): H (H shows the control value more than 50%) | control value, Test H (anthracnose on cucumber) [1]: H (H shows the control value more than 50%) | control value, Test F (late blight on tomato) (Phytophthora infestans): L (L shows the control value of 50% or less)

CCn1c(-c2c(F)cc(F)cc2F)c(-n2cc(F)cn2)ccc1=O [Compound 191]
control value, Test A (blast on rice) (Magnaporthe grisea): H (H shows the control value more than 50%) | control value, Test H (anthracnose on cucumber) [1]: H (H shows the control value more than 50%) | control value, Test F (late blight on tomato) (Phytophthora infestans): L (L shows the control value of 50% or less)

CCn1c(-c2c(F)cc(F)cc2F)c(-n2cc(F)cn2)cc(Cl)c1=O [Compound 192]
control value, Test A (blast on rice) (Magnaporthe grisea): H (H shows the control value more than 50%) | control value, Test H (anthracnose on cucumber) [1]: H (H shows the control value more than 50%) | control value, Test F (late blight on tomato) (Phytophthora infestans): L (L shows the control value of 50% or less)

Cc1cnn(-c2cc(Br)c(=O)n(CC(F)F)c2-c2c(F)cccc2F)c1Cl [Compound 193]
control value, Test A (blast on rice) (Magnaporthe grisea): H (H shows the control value more than 50%) | control value, Test H (anthracnose on cucumber) [1]: H (H shows the control value more than 50%) | control value, Test F (late blight on tomato) (Phytophthora infestans): L (L shows the control value of 50% or less)

CCn1c(-c2c(F)cc(F)cc2F)c(-n2cc(F)cn2)cc(Br)c1=O [Compound 194]
control value, Test A (blast on rice) (Magnaporthe grisea): H (H shows the control value more than 50%) | control value, Test H (anthracnose on cucumber) [1]: H (H shows the control value more than 50%) | control value, Test F (late blight on tomato) (Phytophthora infestans): L (L shows the control value of 50% or less)

CCn1c(-c2ccccc2Br)c(-n2cc(Cl)cn2)cc(Cl)c1=O [Compound 195]
control value, Test A (blast on rice) (Magnaporthe grisea): H (H shows the control value more than 50%) | control value, Test H (anthracnose on cucumber) [1]: H (H shows the control value more than 50%) | control value, Test F (late blight on tomato) (Phytophthora infestans): L (L shows the control value of 50% or less)

CCn1c(-c2ccccc2Br)c(-n2cc(Cl)cn2)cc(Br)c1=O [Compound 196]
control value, Test A (blast on rice) (Magnaporthe grisea): H (H shows the control value more than 50%) | control value, Test H (anthracnose on cucumber) [1]: L (L shows the control value of 50% or less) | control value, Test F (late blight on tomato) (Phytophthora infestans): L (L shows the control value of 50% or less)

CCn1c(-c2c(F)cccc2Cl)c(-n2cc(Cl)cn2)ccc1=O [Compound 197]
control value, Test A (blast on rice) (Magnaporthe grisea): H (H shows the control value more than 50%) | control value, Test H (anthracnose on cucumber) [1]: H (H shows the control value more than 50%) | control value, Test F (late blight on tomato) (Phytophthora infestans): L (L shows the control value of 50% or less)

CCn1c(-c2c(F)cccc2Cl)c(-n2cc(Cl)cn2)cc(Cl)c1=O [Compound 198]
control value, Test A (blast on rice) (Magnaporthe grisea): L (L shows the control value of 50% or less) | control value, Test H (anthracnose on cucumber) [1]: L (L shows the control value of 50% or less) | control value, Test F (late blight on tomato) (Phytophthora infestans): L (L shows the control value of 50% or less)
